Measurements taken from PubChem BioAssay AID1508624 (National Center for Advancing Translational Sciences (NCATS), 2021).
In all, about 48,000 compounds went through this assay and about 120 (0.25%) were called active. Another 4% or so got no clear call; they are omitted. Calls follow the shape of the dose curve; as a rule, active = well fitted activation curve with a large enough effect; inconclusive = small, poorly fitted or top-dose-only effect, or another doubt; inactive = no such curve, though single readings can be large or run the other way. This is one part of the list.

Assay: Primary qHTS for Identification of Small Molecule Activators of Huntingtin-Antisense Promoter Activity; also: nearly all actives have a fitted effect of over 55% in size
Conditions: HEK293 HTT-AS promoter firefly luciferase reporter, 24 h; series mostly up to 57.5 µM; activity change, positive = activation: at the top concentration
How it was run: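 Firefly luciferase signal from promoter-reporter HEK293 cells was scaled between vehicle (0%) and zero RLU (-100%). Compounds were tested at final concentrations of up to 57.5 uM over 24 h at 37 degrees C. PTC124 at 50 uM final served as control inhibitor.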

Activity change, positive = activation, inactive:
CC(=O)N1CCc2c(sc3c2c(=O)n(-c2ccccc2C)c(=O)n3CC(=O)Nc2ccccc2)C1 -16.4%
Cc1ccc(S(=O)(=O)c2nc(-c3cccs3)oc2N2CCC(C)CC2)cc1 -19.8%
Cn1c(=O)sc2cc(NS(=O)(=O)c3ccc(C(C)(C)C)cc3)ccc21 16.7%
Cc1c(C(=O)Nc2c(F)cccc2F)sc2ncn(Cc3ccccc3F)c(=O)c12 -20.4%
COc1ccc(C(=O)NCc2cn3ccc(C)cc3n2)cc1 -11.6%
CCCCN(C)C(=O)CCC(=O)NNc1nc2ccccc2c2nc(C)nn12 -12.4%
COc1cc2c(cc1OC)C(COc1cc(C)cc(C)c1)N(C(=O)C(C)(C)C)CC2 (centres undefined) -20%
Cc1oc(-c2cccc(Cl)c2)nc1Cn1c(SCc2ccc(F)cc2)nc2cccnc21 -23%
Cc1cccc(N2CCn3c2nc2c3c(=O)n(CCCc3ccccc3)c(=O)n2C)c1 -14.4%
COc1cc2c(C(=O)N(C)c3cccc(C(F)(F)F)c3)cn(CC(C)C)c(=O)c2cc1OC -18.4%
Cc1ccc(C(c2sc3nc(-c4ccco4)nn3c2O)N2CCN(c3ccc(F)cc3)CC2)cc1 (centres undefined) -7.87%
CCC(C)OC(=O)/C(C#N)=C/c1ccc(-c2ccc(Br)cc2)o1 (centres undefined) 6.88%
O=C(CCCCCn1c(=O)c2sccc2n(CC(=O)Nc2ccccc2F)c1=O)NCc1ccc2c(c1)OCO2 -19.4%
Cc1ccc(C2CC(=O)Nc3c2c(C)nn3-c2nc(C)cc(C)n2)c(C)c1 (centres undefined) -2.33%
Cc1cc2n(n1)CCCN2C(=O)Nc1ccccc1C(F)(F)F -1.29%
Cc1ccccc1C(=O)N1CCC(c2nc(-c3ccc(S(=O)(=O)N4CCCC4)cc3)no2)CC1 -14.6%
Cn1c(=O)oc2cc(S(=O)(=O)CCC(=O)NCc3ccc(Cl)cc3)ccc21 -1.94%
Cc1ccsc1CN(Cc1ccco1)c1cnc(S(C)(=O)=O)nc1C(=O)Nc1ccc(Cl)cc1 -23.5%
CC1CCN(C(=O)CN2CC(C)Sc3ccccc32)CC1 (centres undefined) -5.31%
Cc1ccc(NC(=O)N2CC=C(c3c[nH]c4ccccc34)CC2)cc1Cl -17.5%
COc1ccc(-c2cn3nc(SCC(=O)Nc4cccc(C)c4C)ccc3n2)cc1 -5.3%
CCOCCn1ccc2c(OCC(=O)Nc3cc(C)cc(C)c3)cccc2c1=O -8.71%
Cc1cccc(C(=O)Nc2ccc(OCc3cc(=O)n4ccc(C)cc4n3)cc2)c1 -12.9%
Cc1ccc(NS(=O)(=O)c2ccc(-n3cccn3)cc2)c(Br)c1 -36.4%
COc1ccc(Nc2nc3ccccc3n3c(N)nnc23)cc1 21.2%
O=C(Nc1ccc(F)c(F)c1)c1cc(S(=O)(=O)NC2CCCC2)ccc1F -30.7%
Cc1cccc(N2CCN(CCCNc3ncnc4onc(-c5ccc(F)cc5)c34)CC2C)c1 (centres undefined) -41.8%
CCCCc1ccc(NS(=O)(=O)c2ccc(C)c(C(=O)N3CCN(c4cccc(C)c4C)CC3)c2)cc1 -19.9%
O=C(CCNS(=O)(=O)c1ccc2c(c1)CCN2C(=O)C1CC1)Nc1ccc(OC(F)(F)F)cc1 -45.1%
COc1cccc(C(=O)Nc2ccc3nc(SCCOc4ccccc4)sc3c2)c1 -27.4%
CCc1ccc2oc(-c3cc(NC(=O)c4cccs4)ccc3Cl)nc2c1 -7.75%
CCC(C)NC(=O)Cn1ccc2cc(S(=O)(=O)N3CCCCCC3)ccc21 (centres undefined) -32.1%
CCC1=C(C)CN(C(=O)NCCc2ccc(S(=O)(=O)NC(=O)NC3CCC(C)CC3)cc2)C1=O (centres undefined)
O=C(Cc1ccc(-c2ccccc2)cc1)NCCS(=O)(=O)N1CCN(c2ccccc2F)CC1 -19.7%
COc1cccc(NC(=O)C2CCCN(c3ncnc4onc(C)c34)C2)c1 (centres undefined) -20.7%
CNC(=O)c1cc(COc2nnc(Nc3ccc(Cl)cc3)c3ccoc23)ccn1 -2.31%
O=C(Nc1ccccc1C(=O)N1CCCCC1)c1nsc2ccccc12 -7.8%
CCCCCOc1ccc(/C=C/C(=O)Nc2sc3c(c2C(=O)OCC)CCC3)cc1OC -1.75%
CCCCOc1cccc(C2c3c(-c4cc(C)ccc4O)n[nH]c3C(=O)N2CCOC)c1 (centres undefined) -25.8%
COc1ccc(NC(=O)CNC(=O)Cn2ccc3ccccc3c2=O)cc1OC -11.8%
CCc1ccc(NC(=O)c2cc(=O)c3ccc(C)c(C)c3o2)cc1 -40.8%
COC(=O)CN1C(C(=O)c2ccccc2)=C(OC(=O)c2ccccc2)c2ccccc2S1(=O)=O -16.8%
CCCN1C(C(=O)c2ccccc2)=C(OC(=O)COc2ccc(C)cc2)c2ccccc2S1(=O)=O -33.8%
Cc1ccc(NC(=O)CCCn2nc(C)c3c(C)n(-c4ccccc4)nc3c2=O)c(Cl)c1 0.553%
COc1ccc(S(=O)(=O)N(CC(=O)Nc2ccc(Br)cc2)Cc2ccccc2)cc1 -21.2%
Cc1ccc(NC(=O)C2CCCN(S(=O)(=O)c3cccs3)C2)c(C)c1 (centres undefined) -20.4%
CCOC(=O)c1cc(NC(=O)c2ccc(F)cc2)c(=O)n2c1oc1ccc(Cl)cc12 1.89%
CCCSCCCNC(=O)Cn1c(-c2cccs2)cc2ccccc21 -35%
Cc1cc(O)c(CN2CCN(c3ccccc3)CC2)c2oc(=O)cc(C)c12 -12.4%
O=C(Nc1c2c(nn1-c1ccc(Cl)cc1)CS(=O)(=O)C2)c1ccc(Br)cc1 -55.1%
Cc1nc(-c2ccc(S(=O)(=O)NCc3ccccc3Cl)cc2)co1 -21.4%
CCCCN(CCCC)C(=O)c1c[nH]c2ccc(S(=O)(=O)Nc3cccc(Cl)c3C)cc2c1=O -31.7%
CCCn1c2ccccc2c2cnn(CC(=O)N3CCCC(C(=O)OCC)C3)c(=O)c21 (centres undefined) -23.5%
CCN1CCN(C(=O)Cn2ncc3c4ccccc4n(Cc4c(C)cc(C)cc4C)c3c2=O)CC1 -20.9%
Cc1ccc(CCNC(=O)c2ccc3c(c2)N(Cc2cccc(F)c2)C(=O)c2ccccc2S3)cc1 -15.6%
Cc1ccc2c(=O)cc(C(=O)Nc3sc4c(c3C(=O)NCc3cccnc3)CCCC4)oc2c1 4.25% [at 11.5 µM, percent change from vehicle, -100% = no light]
CCOC(=O)c1ccc(NC(=O)C2=C(C)C(=O)OC23CCN(C(C)C)CC3)cc1 -18.8%
Cc1ccc(CN(C(=O)COc2ccc(F)cc2)C2CCS(=O)(=O)C2)o1 (centres undefined) -6.98%
CCn1cc(S(=O)(=O)c2ccccc2)c(=O)c2cc(F)c(F)cc21 1.48%
